# Results: PubChem BioAssay (Tox21)
# Several values for one entry are separate records, joined by “and”; a condition that tells them apart may be missing. Equal values may be shown once. Inconclusive means that the source gave no clear call. Such entries were picked first, then a sample of the others. Where the call is inconclusive, the potency comes from a doubtful curve fit. Activity calls are given as the source filed them. Calls follow the shape of the dose curve; as a rule, active = well fitted activation curve with a large enough effect in the signal ratio in the repeat runs, with a control signal flat (not every such curve was filed as active); inconclusive = weak or mixed curves; inactive = flat fitted curve, though single readings scatter; the % refers to the signal ratio.
# Test: qHTS assay for small molecule activators of the heat shock response signaling pathway (AID 743210)
# Details: HeLa HSE-bla reporter, beta-lactamase ratio, 5 h; activation: at 62.6 µM (top of the series)
# Text: U.S. Tox21 Program National Center for Advancing Translational Sciences [NCATS] NIH Chemical Genomics Center [NCGC] U.S. Environmental Protection Agency [EPA] National Institutes of Environmental Health Sciences [NIEHS] National Toxicology Program [NTP] U.S. Food and Drug Administration [FDA] Tox21 Assay Overview: Various chemicals, environmental and physiological stress conditions may lead to the activation of heat shock response/ unfolded protein response (HSR/UPR). There are three heat shock transcription factors (HSFs) (HSF-1, -2, and -4) mediating transcriptional regulation of the human HSR. To identify the compounds that activate HSR signaling, HSE-bla HeLa cell line (Invitrogen, Carlsbad, CA, USA) containing a beta-lactamase reporter gene under the control of the heat shock response elements was used to screen the Tox21 10K compound library.
# Tox21 Assay Protocol Summary: The CellSensor HSE-bla HeLa cells (Invitrogen, Carlsbad, CA, USA) were dispensed at 1500 cells/6uL/well into 1536-well black wall/clear bottom plates using a Multidrop combi (Thermo Fisher Scientific, Waltham, MA) dispenser. After the assay plates were incubated at 37 C and 5% CO2 overnight, 23 nL of compounds dissolved in DMSO, positive controls or DMSO only was transferred to the assay plate by a Pintool station (Kalypsys, San Diego, CA). The plates were incubated at 37 C for 5 h. After 1 uL of LiveBLAzerTM B/G FRET substrate was added using a Flying Reagent Dispenser (Beckman Coulter, Indianapolis, IN, USA), the plates were incubated at room temperature for 2.5 h, and fluorescence intensity was measured by an Envision plate reader (PerkinElmer, Shelton, CT).
# % is scaled to controls: 0 for no effect and ±100 for the full control effect; potency is read from the fitted curve at half-maximal effect; tags tell the direction and shape of the fitted curve or compound fluorescence and quenching.
Structure (SMILES),Potency,activation
Clc1ccc(C(Cn2ccnc2)OCc2c(Cl)cccc2Cl)c(Cl)c1 (stereo not given),inconclusive: 24.6 µM,
CC1=C(C(=O)OC(C)C)C(c2cccc([N+](=O)[O-])c2)C(C(=O)OC2CN(C(c3ccccc3)c3ccccc3)C2)=C(N)N1 (stereo not given),inconclusive: 18.8 µM [partial curve],
O=C(COc1ccc(Cl)cc1)N1CCN(Cc2ccc3c(c2)OCO3)CC1,"inconclusive: 43.6 µM [falling, partial curve]",
CC1=C(/C=C/C(C)=C/C=C/C(C)=C\C=O)C(C)(C)CCC1,inconclusive: 55.1 µM,
Nc1nc(N)c2nc(-c3ccccc3)c(N)nc2n1,active: 37.1 µM and active: 29.7 µM and active: 26.6 µM,
O=C1NCN(c2ccccc2)C12CCN(CCCC(c1ccc(F)cc1)c1ccc(F)cc1)CC2,inconclusive: 33.5 µM,
CCCCCCCCCCCCc1ccc(O)cc1,"inconclusive: 43.6 µM [falling, partial curve]",
CCCCC(CC)CN=C(N)NC(N)=NCCCCCCN=C(N)NC(N)=NCC(CC)CCCC (stereo not given),inconclusive: 25.6 µM [cytotoxic],
CCc1cc(Cc2cc(CC)cc(C(C)(C)C)c2O)c(O)c(C(C)(C)C)c1,inconclusive: 13.3 µM,
CCCCCCOC(=O)c1ccc(O)cc1,inconclusive: 55 µM [single point],
CCN=c1cc2oc3cc(NCC)c(C)cc3c(-c3ccccc3C(=O)OCC)c-2cc1C,inconclusive: 28.5 µM and inconclusive: 52.9 µM,
CC(Cc1ccc(O)c(O)c1)C(C)Cc1ccc(O)c(O)c1 (stereo not given),inconclusive: 34.7 µM,
CCCCCCCCNC(C)C(O)c1ccc(SC(C)C)cc1 (stereo not given),inconclusive: 23.7 µM,
CCOC(=O)C1=C(C)NC(C)=C(C(=O)OCC)C1c1ccccc1/C=C/C(=O)OC(C)(C)C,inconclusive: 31 µM,
CC1=C(/C=C/C(C)=C/C=C/C(C)=C\C(=O)O)C(C)(C)CCC1,inconclusive: 61.8 µM,
CSc1c(Cl)c(Cl)c(Cl)c(Cl)c1Cl,"inconclusive: 61.3 µM [falling, single point]",
[O-][n+]1ccccc1SSc1cccc[n+]1[O-],inconclusive: 0.0759 µM,
CCCCCCCCCCCC(=O)NCCCN(C)C,inconclusive: 52.9 µM,
Cc1cc(OCCOCC[N+](C)(C)Cc2ccccc2)ccc1C(C)(C)CC(C)(C)C,inconclusive: 28.4 µM and inconclusive: 33.5 µM,
Cc1cc(F)ccc1-c1cc(N2CC[C@@H](O)[C@H]2CO)ncc1N(C)C(=O)C(C)(C)c1cc(C(F)(F)F)cc(C(F)(F)F)c1,"inconclusive: 19.2 µM [falling, full curve]",

Structure (SMILES),Potency,activation
CC(C)(C)c1ccc(O)c(C(C)(C)C)c1,inconclusive: 54.7 µM and inconclusive: 47.1 µM,
CCCCCCCCn1sc(Cl)c(Cl)c1=O,inconclusive: 11.8 µM,
CC(C)c1ccc(S(=O)(=O)O)cc1,inactive,
Cc1ccc(S(=O)(=O)Oc2ccc(N=Nc3ccc(-c4ccc(N=Nc5c(O)ccc6cc(S(=O)(=O)O)cc(S(=O)(=O)O)c56)c(C)c4)cc3C)cc2)cc1,inconclusive: 33.2 µM,
Cc1ccc(C(C)(C)C)c(O)c1,"inconclusive: 61.6 µM [falling, partial curve, poor fit]",
CC(C)(C)c1ccc(C(O)CCCN2CCC(C(O)(c3ccccc3)c3ccccc3)CC2)cc1 (stereo not given),inconclusive: 33.5 µM [single point],
CCCCCCCC/C=C\CCCCCCCC(=O)N(CCO)CCO,inconclusive: 58 µM,
CCCCC(CC)COC(=O)c1ccc(O)cc1 (stereo not given),inconclusive: 40.3 µM and inconclusive: 57.1 µM,
CC=O,inconclusive: 62.1 µM,
CC(C)(c1cc(Br)c(OCCO)c(Br)c1)c1cc(Br)c(OCCO)c(Br)c1,inconclusive: 19.1 µM,
O=C(Nc1ccc(Cl)cc1)Nc1ccc(Cl)c(C(F)(F)F)c1,"inconclusive: 26.6 µM [rising, partial curve]",
CC[C@]1(O)C[C@H]2CN(CCc3c([nH]c4ccccc34)[C@@](C(=O)OC)(c3cc4c(cc3OC)N(C=O)[C@H]3[C@@](O)(C(=O)OC)[C@H](OC(C)=O)[C@]5(CC)C=CCN6CC[C@]43[C@@H]65)C2)C1,,inactive: 0.233%
CCCCCCCOC(=O)c1ccc(O)cc1,inconclusive: 49 µM and inconclusive: 51.9 µM,
C=CC(=O)OCCOCCOCCOCCOC(=O)C=C,inconclusive: 51.1 µM and inconclusive: 54.4 µM,
Clc1ccc2c(c1)C(N1CCNCC1)=Nc1ccccc1O2,inconclusive: 45.3 µM and inconclusive: 22.8 µM,
CN(C)C(=S)SC(=S)N(C)C,inconclusive: 1 µM and inconclusive: 360 nM and inconclusive: 1.81 µM,
O=C1C=CC(=O)N1c1ccccc1,inconclusive: 26.5 µM,
[Cl][Bi]([Cl])([c]1ccccc1)([c]1ccccc1)[c]1ccccc1,inconclusive: 30.7 µM,
CCCCCN=C(N)N/N=C/c1c[nH]c2ccc(OC)cc12,inconclusive: 32.2 µM,
CC1CCCNC1 (stereo not given),inconclusive: 29.1 µM,
